Assay results as given in PMC5700166.
The entries are a selection whose mix differs from that of the whole data set. The list includes weakly bound sequences.

Legend:
Assay in all cases: protein-binding microarray (PBM)
Conditions in all cases: PBM: ~300 nM protein, 6 mM HEPES pH 7.8, 80 mM KCl, 0.5 mM EDTA, 0.5 mM EGTA, 6% glycerol, 35 ng/ul poly-dIdC, 1% milk, 1 h, room temperature; Ap Aiptasia and Nv Nematostella (sea anemones) / Co Capsaspora / Aq Amphimedon (sponge) / Dm Drosophila / Hu human; RHD is the Rel homology domain; high values mean tight binding; most listed sequences are background and not binding sites; double strand, one strand shown
[1] = target: T1, GST-Ap-NF-kB RHD (UniProt A0A913YAJ5)
T1 sequence: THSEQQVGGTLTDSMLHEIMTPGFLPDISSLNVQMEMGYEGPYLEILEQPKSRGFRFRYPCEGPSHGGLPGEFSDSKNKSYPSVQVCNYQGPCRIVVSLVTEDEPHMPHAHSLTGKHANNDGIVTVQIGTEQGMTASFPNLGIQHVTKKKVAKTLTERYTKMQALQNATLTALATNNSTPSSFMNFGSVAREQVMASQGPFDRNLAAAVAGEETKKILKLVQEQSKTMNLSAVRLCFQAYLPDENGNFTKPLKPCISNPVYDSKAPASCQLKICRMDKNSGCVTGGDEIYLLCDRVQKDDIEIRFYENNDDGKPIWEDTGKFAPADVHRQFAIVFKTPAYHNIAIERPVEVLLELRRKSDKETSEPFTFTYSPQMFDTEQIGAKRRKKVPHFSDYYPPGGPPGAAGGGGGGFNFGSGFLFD

[2] = target: T2, GST-Nv-NF-kB (Cys allele) (UniProt E5G601)
T2 sequence: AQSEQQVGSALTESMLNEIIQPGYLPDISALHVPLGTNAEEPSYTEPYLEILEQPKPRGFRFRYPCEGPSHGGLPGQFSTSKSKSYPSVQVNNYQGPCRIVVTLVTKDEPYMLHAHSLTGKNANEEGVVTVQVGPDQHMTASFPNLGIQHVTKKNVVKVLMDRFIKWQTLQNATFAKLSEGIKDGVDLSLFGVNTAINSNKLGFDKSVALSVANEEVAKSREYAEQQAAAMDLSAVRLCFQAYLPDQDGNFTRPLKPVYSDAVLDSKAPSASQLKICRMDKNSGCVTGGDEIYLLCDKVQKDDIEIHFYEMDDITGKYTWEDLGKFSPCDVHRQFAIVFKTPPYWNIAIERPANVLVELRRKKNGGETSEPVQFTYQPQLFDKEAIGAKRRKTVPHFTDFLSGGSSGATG

[3] = target: T3, GST-Co-NF-kB (UniProt F1ARL5)
T3 sequence: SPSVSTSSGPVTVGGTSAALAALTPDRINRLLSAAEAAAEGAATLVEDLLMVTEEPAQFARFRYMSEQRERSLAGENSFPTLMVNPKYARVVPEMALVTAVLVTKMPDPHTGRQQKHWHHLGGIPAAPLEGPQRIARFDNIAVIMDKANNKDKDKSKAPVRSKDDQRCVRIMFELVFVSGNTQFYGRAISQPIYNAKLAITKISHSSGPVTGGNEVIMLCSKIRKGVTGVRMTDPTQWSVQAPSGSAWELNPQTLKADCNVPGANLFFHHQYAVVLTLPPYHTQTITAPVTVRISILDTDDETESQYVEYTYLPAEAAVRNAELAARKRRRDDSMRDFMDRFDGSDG

[4] = target: T4, GST-Dm-Relish (UniProt Q94527)
T4 sequence: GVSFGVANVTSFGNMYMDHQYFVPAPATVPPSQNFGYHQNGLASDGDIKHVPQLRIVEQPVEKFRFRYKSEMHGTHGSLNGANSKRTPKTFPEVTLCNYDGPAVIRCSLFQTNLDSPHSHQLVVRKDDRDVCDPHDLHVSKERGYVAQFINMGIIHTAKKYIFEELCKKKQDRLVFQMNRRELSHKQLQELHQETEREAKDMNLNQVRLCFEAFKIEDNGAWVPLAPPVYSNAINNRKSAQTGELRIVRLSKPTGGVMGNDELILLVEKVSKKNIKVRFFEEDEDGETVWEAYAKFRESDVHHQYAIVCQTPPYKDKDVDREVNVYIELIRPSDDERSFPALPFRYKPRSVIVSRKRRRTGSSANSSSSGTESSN

[5] = target: T5, GST-Aq-NF-kB (UniProt A9Y5G7)
T5 sequence: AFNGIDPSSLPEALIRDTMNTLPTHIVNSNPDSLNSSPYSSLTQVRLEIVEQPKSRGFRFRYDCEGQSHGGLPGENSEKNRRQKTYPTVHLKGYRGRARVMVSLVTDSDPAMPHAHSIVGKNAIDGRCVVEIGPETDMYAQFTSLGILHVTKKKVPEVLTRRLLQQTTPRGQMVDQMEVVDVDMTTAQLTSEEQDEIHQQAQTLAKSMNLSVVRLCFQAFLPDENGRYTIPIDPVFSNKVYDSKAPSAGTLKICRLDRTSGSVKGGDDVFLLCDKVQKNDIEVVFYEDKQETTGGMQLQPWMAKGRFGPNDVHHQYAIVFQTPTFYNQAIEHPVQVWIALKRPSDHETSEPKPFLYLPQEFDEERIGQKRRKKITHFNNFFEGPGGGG

Row | Sequence | binding signal [1] | binding signal [2] | binding signal [3] | binding signal [4] | binding signal [5]
1 | CCGATTAACATCAACGGACAACTTGATGTTAATCGGGTCTTGATTCGCTTGACGCTGCTG | -0.0424 z-score | 0.275 z-score | 0.15 z-score | -0.387 z-score | -0.117 z-score
2 | CCGATTAACATCACATGCTGCTGTGATGTTAATCGGGTCTTGATTCGCTTGACGCTGCTG | -0.659 z-score | 0.208 z-score | -0.854 z-score | -0.101 z-score | -0.718 z-score
3 | CCGATTAACATCAGCCTCTAACCTGATGTTAATCGGGTCTTGATTCGCTTGACGCTGCTG | -0.58 z-score | -0.52 z-score | -1.01 z-score | -1.14 z-score | -0.652 z-score
4 | CCGATTAACATCAGCGGATCCGTTGATGTTAATCGGGTCTTGATTCGCTTGACGCTGCTG | -0.223 z-score | -0.134 z-score | -1.73 z-score | -1.12 z-score | -0.4 z-score
5 | CCGATTAACATCATTTGGCTGACTGATGTTAATCGGGTCTTGATTCGCTTGACGCTGCTG | -0.283 z-score | -0.416 z-score | 0.35 z-score | -0.573 z-score | -0.237 z-score
6 | CCGATTAACATCAATTCCGGCGCTGATGTTAATCGGGTCTTGATTCGCTTGACGCTGCTG | -0.109 z-score | -0.319 z-score | 0.0663 z-score | -0.282 z-score | -0.19 z-score
7 | CCGATTAACATCAGACGAGACCGTGATGTTAATCGGGTCTTGATTCGCTTGACGCTGCTG | -0.648 z-score | -0.143 z-score | -0.09 z-score | -0.16 z-score | -0.316 z-score
8 | CCGATTAACATCATAAACTCTCTTGATGTTAATCGGGTCTTGATTCGCTTGACGCTGCTG | -0.487 z-score | -0.461 z-score | 0.197 z-score | -0.0446 z-score | -0.33 z-score
9 | CCGATTAACATCAGTTTCCGAAGTGATGTTAATCGGGTCTTGATTCGCTTGACGCTGCTG | -0.487 z-score | 0.344 z-score | 0.0647 z-score | -0.218 z-score | -0.228 z-score
10 | CCGATTAACATCAGCATATGCAGTGATGTTAATCGGGTCTTGATTCGCTTGACGCTGCTG | -0.199 z-score | 0.214 z-score | -1.21 z-score | -0.412 z-score | -0.354 z-score
11 | CCGATTAACATCACCGCAGCCTTTGATGTTAATCGGGTCTTGATTCGCTTGACGCTGCTG | 0.445 z-score | -0.188 z-score | -0.64 z-score | 0.642 z-score | 0.0886 z-score
12 | CCGATTAACATCATGCTACTATCTGATGTTAATCGGGTCTTGATTCGCTTGACGCTGCTG | -0.0732 z-score | -0.0155 z-score | -0.436 z-score | -0.846 z-score | -0.436 z-score
13 | CCGATTAACATCATTAATGTAGATGATGTTAATCGGGTCTTGATTCGCTTGACGCTGCTG | -0.523 z-score | 0.0944 z-score | -0.634 z-score | -0.154 z-score | -0.315 z-score
14 | CCGATTAACATCAAATTCTTTCCTGATGTTAATCGGGTCTTGATTCGCTTGACGCTGCTG | -0.34 z-score | 0.323 z-score | 0.171 z-score | 0.589 z-score | 0.141 z-score
15 | CCGATTAACATCAGTAATTTACATGATGTTAATCGGGTCTTGATTCGCTTGACGCTGCTG | -0.851 z-score | 0.0802 z-score | 0.117 z-score | 6.73 z-score | -0.0854 z-score
16 | CCGATTAACATCATAGGAGTTCTTGATGTTAATCGGGTCTTGATTCGCTTGACGCTGCTG | -0.0929 z-score | -0.193 z-score | -0.00984 z-score | -0.414 z-score | -0.408 z-score
17 | CCGATTAACATCATCAACTAATTTGATGTTAATCGGGTCTTGATTCGCTTGACGCTGCTG | -0.721 z-score | -0.784 z-score | -0.887 z-score | -0.467 z-score | -0.328 z-score
18 | CCGATTAACATCATCGGCCTTAATGATGTTAATCGGGTCTTGATTCGCTTGACGCTGCTG | -0.525 z-score | 0.22 z-score | -1.56 z-score | -0.74 z-score | -0.361 z-score
19 | CCGATTAACATCAGCAATGTAGGTGATGTTAATCGGGTCTTGATTCGCTTGACGCTGCTG | 0.268 z-score | -0.00787 z-score | -0.118 z-score | 0.25 z-score | 0.341 z-score
20 | CCGATTAACATCACCAGGAAAGTTGATGTTAATCGGGTCTTGATTCGCTTGACGCTGCTG | -0.298 z-score | 0.64 z-score | 0.462 z-score | 0.393 z-score | 0.234 z-score
21 | CCGATTAACATCAATGGTGCGAGTGATGTTAATCGGGTCTTGATTCGCTTGACGCTGCTG | 0.755 z-score | 0.0356 z-score | 0.389 z-score | 0.0605 z-score | -0.185 z-score
22 | CCGATTAACATCACCAAGTATAGTGATGTTAATCGGGTCTTGATTCGCTTGACGCTGCTG | -0.233 z-score | -0.0471 z-score | 1.42 z-score | 0.452 z-score | -0.273 z-score
23 | CCGATTAACATCAAGTCTAGGGATGATGTTAATCGGGTCTTGATTCGCTTGACGCTGCTG | 0.956 z-score | -0.218 z-score | 0.00917 z-score | -0.915 z-score | 0.291 z-score
24 | CCGATTAACATCAAGCATTATAATGATGTTAATCGGGTCTTGATTCGCTTGACGCTGCTG | -0.455 z-score | -0.865 z-score | -0.911 z-score | -0.613 z-score | -0.387 z-score
25 | CCGATTAACATCACCTTTATCCATGATGTTAATCGGGTCTTGATTCGCTTGACGCTGCTG | 0.157 z-score | -0.864 z-score | 0.346 z-score | 0.137 z-score | 0.607 z-score
